Data from patent publication US20260209325A1, “SELECTIVE AND POTENT INHIBITORY ANTIBODIES OF MYOSTATIN ACTIVATION” (SCHOLAR ROCK, INC., priority 2022, published 2026).

Key:
Pro + Furin = Pro + Furin (Homo sapiens, UniProt O14793); assay: functional ELISA: myostatin inhibition activity, Pro + Furin; format: biochemical; settings: Table 8
Procedure: To measure inhibitory potency of the novel antibodies against myostatin activation, an ELISA-based in vitro potency assay (“functional ELISA”) was carried out. First, each of the test antibodies was preincubated with recombinant human latent myostatin to let immune complexes form. Subsequently, mTLL-2 was added to the immune mixture to trigger the release of mature myostatin by proteolytic cleavage. If the test antibody is capable of blocking mTLL-2-induced activation, mature myostatin is not released from the latent myostatin complex. […] Following mTLL-2 treatment, the amount of free (released) mature myostatin in the presence of test antibodies was measured by ELISA, in which the plates were coated with ActRII-Fc fusion protein, which is a ligand trap serving as the capture reagent. Free mature myostatin present in the assay mixture was captured on the ELISA plate, and the amount of bound mature myostatin was measured by biotin-streptavidin-based detection reagents in 11 data points.

human pro-myostatin = human pro-myostatin (Homo sapiens, UniProt O14793); assay: Biacore 8k SPR binding affinity, human pro-myostatin
Excerpt: (§1) The Biacore™ 8k SPR system was utilized to evaluate the binding affinity of myostatin antibodies to biotinylated human, murine, and cyno pro-myostatin. Biotin CAPture kit and sensor chips (Cytiva) were utilized in these experiments to immobilize the various antigens, followed by flowing a range of concentrations of each of the test antibodies.

murine pro-myostatin = murine pro-myostatin (Mus musculus, UniProt O08689); assay: Biacore 8k SPR binding affinity, murine pro-myostatin
Excerpt: as §1

cyno pro-myostatin = cyno pro-myostatin (Macaca fascicularis, UniProt Q95J86); assay: Biacore 8k SPR binding affinity, cyno pro-myostatin; design: species or system cynomolgus monkey
Excerpt: as §1

B1: Ab124: anti-pro/latent myostatin antibody; CDR sequences in Table 2d (antibody)
heavy: QVQLQESGPGLVKPSQTLSLTCTVSGGSISSSPYSWSWIRQPPGKGLEWIGYVDLAGSTDYNPSLKSRVTMSVDTSKNQFSLKVNSVTAADTAVYYCARALSSRSSEWLLDQYTMDVWGQGTTVTVSSASTKGPSVFPLAPCSRSTSESTAALGCLVKDYFPEPVTVSWNSGALTSGVHTFPAVLQSSGLYSLSSVVTVPSSSLGTKTYTCNVDHKPSNTKVDKRV[human IgG4 Fc with S228P (EU numbers) left out]
light: EIVMTQSPATLSLSPGERATLSCRASQSIGINLAWYQQKPGQAPRLLIYGVSNRATGIPARFSGSGSGTDFTLTISSLEPEDFAVYYCQQYGTARLTFGGGTKVEIKRTVAAPSVFIFPPSDEQLKSGTASVVCLLNNFYPREAKVQWKVDNALQSGNSQESVTEQDSKDSTYSLSSTLTLSKADYEKHKVYACEVTHQGLSSPVTKSFNRGEC
- IC50 (Pro + Furin): 1.08 nM
- Ka (human pro-myostatin): 1.54e+06 M⁻¹ s⁻¹
- Kd (human pro-myostatin): 1.84 nM
- Kd (1/s) (human pro-myostatin): 0.000285 s⁻¹
- Ka (murine pro-myostatin): 139000 M⁻¹ s⁻¹
- Kd (1/s) (murine pro-myostatin): 0.000454 s⁻¹
- Ka (cyno pro-myostatin): 176000 M⁻¹ s⁻¹
- Kd (cyno pro-myostatin): 1.57 nM
- Kd (1/s) (cyno pro-myostatin): 0.000277 s⁻¹

B2: Ab125: anti-pro/latent myostatin antibody; CDR sequences in Table 2d (antibody)
heavy: EVQLVQSGAEVKKPGESLKISCKGSGNRISDYWMNWVRQVPGKGLEWMGNIYPGYSDATYNRKFKGQVTISADKSISTAYLQWSSLKASDTAIYYCARGRDGYNYFAAFDIWGQGTMVTVSSASTKGPSVFPLAPCSRSTSESTAALGCLVKDYFPEPVTVSWNSGALTSGVHTFPAVLQSSGLYSLSSVVTVPSSSLGTKTYTCNVDHKPSNTKVDKRV[human IgG4 Fc with S228P (EU numbers) left out]
light: EIVLTQSPATLSLSPGERATLSCRASQSVASSYLAWYQQKPGQAPRLLIYDTSSRAAGIPARFSGSGSGTDFTLTISSLEPEDFAVYYCHQYGSSLTTFGGGTKVEIKRTVAAPSVFIFPPSDEQLKSGTASVVCLLNNFYPREAKVQWKVDNALQSGNSQESVTEQDSKDSTYSLSSTLTLSKADYEKHKVYACEVTHQGLSSPVTKSFNRGEC
- IC50 (Pro + Furin): 0.318 nM
- Ka (human pro-myostatin): 3.58e+06 M⁻¹ s⁻¹
- Kd (human pro-myostatin): 0.103 nM
- Kd (1/s) (human pro-myostatin): 0.000371 s⁻¹
- Ka (murine pro-myostatin): 3.29e+06 M⁻¹ s⁻¹
- Kd (1/s) (murine pro-myostatin): 0.000411 s⁻¹
- Ka (cyno pro-myostatin): 4.01e+06 M⁻¹ s⁻¹
- Kd (cyno pro-myostatin): 0.088 nM
- Kd (1/s) (cyno pro-myostatin): 0.000354 s⁻¹
